Laboratory results as given in the supplement of paper PMC8728848.
The list shows a part of the results.

How the values were obtained:
Experiment in all cases: glycan array binding signal (z-score within array); higher = stronger binding
Conditions in all cases: glycan notation: IUPAC condensed, linker removed
Kdn(a2-3)Gal(b1-3)GlcNAc = biological target: Kdn(a2-3)Gal(b1-3)GlcNAc
Summary of the method: (§1)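 Arrays were curated from the Consortium for Functional Glycomics database, 3228 in total, and kept only where the protein sequence was available. Binding is expressed as a within-array Z-score. This score was averaged across arrays of the same protein sequence at different concentrations or buffers and across linkers, and negative values can be read as non-binding.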

Kdn(a2-3)Gal(b1-4)GlcNAc = biological target: Kdn(a2-3)Gal(b1-4)GlcNAc
Summary of the method: as §1

[1] = biological target: Man(a1-2)Man(a1-2)Man(a1-3)Man
Summary of the method: as §1

[2] = biological target: Man(a1-2)Man(a1-2)Man(a1-6)[Man(a1-3)]Man
Summary of the method: as §1

Man(a1-2)Man(a1-3)Man = biological target: Man(a1-2)Man(a1-3)Man
Summary of the method: as §1

[3] = biological target: Man(a1-2)Man(a1-3)[Man(a1-2)Man(a1-6)]Man
Summary of the method: as §1

[4] = biological target: Man(a1-2)Man(a1-3)[Man(a1-2)Man(a1-6)]Man(a1-6)[Man(a1-2)Man(a1-2)Man(a1-3)]Man(b1-4)GlcNAc(b1-4)GlcNAc
Summary of the method: as §1

[5] = biological target: Man(a1-2)Man(a1-3)[Man(a1-2)Man(a1-6)]Man(a1-6)[Man(a1-3)[Man(a1-6)]Man(a1-6)]Man(b1-4)GlcNAc(b1-4)GlcNAc
Summary of the method: as §1

[6] = biological target: Man(a1-2)Man(a1-3)[Man(a1-6)]Man(a1-6)[Man(a1-2)Man(a1-3)]Man(b1-4)GlcNAc(b1-4)GlcNAc
Summary of the method: as §1

[7] = biological target: Man(a1-2)Man(a1-6)[Man(a1-3)]Man(a1-6)[Man(a1-2)Man(a1-2)Man(a1-3)]Man(b1-4)GlcNAc(b1-4)GlcNAc
Summary of the method: as §1

Man(a1-3)[Man(a1-6)]Man = biological target: Man(a1-3)[Man(a1-6)]Man
Summary of the method: as §1

[8] = biological target: Man(a1-3)[Man(a1-6)]Man(a1-6)[Man(a1-3)]Man(b1-4)GlcNAc(b1-4)GlcNAc
Summary of the method: as §1

Neu5Ac(a2-3)Gal = biological target: Neu5Ac(a2-3)Gal
Summary of the method: as §1

[9] = biological target: Neu5Ac(a2-3)Gal(b1-3)GalNAc
Summary of the method: as §1

[10] = biological target: Neu5Ac(a2-3)Gal(b1-3)GalNAc6S
Summary of the method: as §1

[11] = biological target: Neu5Ac(a2-3)Gal(b1-3)GlcNAc
Summary of the method: as §1

[12] = biological target: Neu5Ac(a2-3)Gal(b1-3)[Fuc(a1-4)]GlcNAc
Summary of the method: as §1

[13] = biological target: Neu5Ac(a2-3)Gal(b1-3)[Neu5Ac(a2-3)Gal(b1-4)]GlcNAc
Summary of the method: as §1

[14] = biological target: Neu5Ac(a2-3)Gal(b1-3)[Neu5Ac(a2-6)]GalNAc
Summary of the method: as §1

Neu5Ac(a2-3)Gal(b1-4)Glc = biological target: Neu5Ac(a2-3)Gal(b1-4)Glc
Summary of the method: as §1

[15] = biological target: Neu5Ac(a2-3)Gal(b1-4)GlcNAc
Summary of the method: as §1

[16] = biological target: Neu5Ac(a2-3)Gal(b1-4)GlcNAc(b1-3)Gal(b1-4)GlcNAc
Summary of the method: as §1

[17] = biological target: Neu5Ac(a2-3)Gal(b1-4)GlcNAc(b1-3)Gal(b1-4)GlcNAc(b1-3)Gal(b1-4)GlcNAc
Summary of the method: as §1

[18] = biological target: Neu5Ac(a2-3)Gal(b1-4)GlcNAc6S
Summary of the method: as §1

[19] = biological target: Neu5Ac(a2-3)Gal(b1-4)[Fuc(a1-3)]GlcNAc
Summary of the method: as §1

[20] = biological target: Neu5Ac(a2-3)Gal(b1-4)[Fuc(a1-3)]GlcNAc(b1-3)Gal
Summary of the method: as §1

[21] = biological target: Neu5Ac(a2-3)Gal(b1-4)[Fuc(a1-3)]GlcNAc(b1-3)Gal(b1-4)GlcNAc
Summary of the method: as §1

[22] = biological target: Neu5Ac(a2-3)Gal(b1-4)[Fuc(a1-3)]GlcNAc(b1-3)Gal(b1-4)[Fuc(a1-3)]GlcNAc(b1-3)Gal(b1-4)[Fuc(a1-3)]GlcNAc
Summary of the method: as §1

[23] = biological target: Neu5Ac(a2-3)Gal(b1-4)[Fuc(a1-3)]GlcNAc6S
Summary of the method: as §1

[24] = biological target: Neu5Ac(a2-3)Gal6S(b1-4)GlcNAc
Summary of the method: as §1

Neu5Ac(a2-3)GalNAc = biological target: Neu5Ac(a2-3)GalNAc
Summary of the method: as §1

[25] = biological target: Neu5Ac(a2-3)[GalNAc(b1-4)]Gal(b1-4)Glc
Summary of the method: as §1

[26] = biological target: Neu5Ac(a2-3)[GalNAc(b1-4)]Gal(b1-4)GlcNAc
Summary of the method: as §1

[27] = biological target: Neu5Ac(a2-3)[Neu5Ac(a2-6)]GalNAc
Summary of the method: as §1

Neu5Ac(a2-6)Gal = biological target: Neu5Ac(a2-6)Gal
Summary of the method: as §1

Neu5Ac(a2-6)Gal(b1-4)Glc = biological target: Neu5Ac(a2-6)Gal(b1-4)Glc
Summary of the method: as §1

[28] = biological target: Neu5Ac(a2-6)Gal(b1-4)GlcNAc
Summary of the method: as §1

[29] = biological target: Neu5Ac(a2-6)Gal(b1-4)GlcNAc(b1-3)Gal(b1-4)GlcNAc
Summary of the method: as §1

[30] = biological target: Neu5Ac(a2-6)Gal(b1-4)GlcNAc(b1-3)Gal(b1-4)[Fuc(a1-3)]GlcNAc(b1-3)Gal(b1-4)[Fuc(a1-3)]GlcNAc
Summary of the method: as §1

[31] = biological target: Neu5Ac(a2-6)Gal(b1-4)GlcNAc6S
Summary of the method: as §1

Neu5Ac(a2-6)GalNAc = biological target: Neu5Ac(a2-6)GalNAc
Summary of the method: as §1

Neu5Ac(a2-8)Neu5Ac = biological target: Neu5Ac(a2-8)Neu5Ac
Summary of the method: as §1

[32] = biological target: Neu5Ac(a2-8)Neu5Ac(a2-3)Gal(b1-4)Glc
Summary of the method: as §1

[33] = biological target: Neu5Ac(a2-8)Neu5Ac(a2-3)[GalNAc(b1-4)]Gal(b1-4)Glc
Summary of the method: as §1

[34] = biological target: Neu5Ac(a2-8)Neu5Ac(a2-8)Neu5Ac
Summary of the method: as §1

[35] = biological target: Neu5Ac(a2-8)Neu5Ac(a2-8)Neu5Ac(a2-3)Gal(b1-4)Glc
Summary of the method: as §1

[36] = biological target: Neu5Ac(a2-8)Neu5Ac(a2-8)Neu5Ac(a2-3)[GalNAc(b1-4)]Gal(b1-4)Glc
Summary of the method: as §1

Neu5Ac(b1-6)GalNAc = biological target: Neu5Ac(b1-6)GalNAc
Summary of the method: as §1

[37] = biological target: Neu5Ac(b2-6)Gal(b1-4)GlcNAc
Summary of the method: as §1

[38] = biological target: Neu5Ac9Ac(a2-6)Gal(b1-4)GlcNAc
Summary of the method: as §1

[39] = biological target: Neu5Gc(a2-3)Gal(b1-3)GlcNAc
Summary of the method: as §1

[40] = biological target: Neu5Gc(a2-3)Gal(b1-3)[Fuc(a1-4)]GlcNAc
Summary of the method: as §1

Neu5Gc(a2-3)Gal(b1-4)Glc = biological target: Neu5Gc(a2-3)Gal(b1-4)Glc
Summary of the method: as §1

[41] = biological target: Neu5Gc(a2-3)Gal(b1-4)GlcNAc
Summary of the method: as §1

[42] = biological target: Neu5Gc(a2-3)Gal(b1-4)[Fuc(a1-3)]GlcNAc
Summary of the method: as §1

[43] = biological target: Neu5Gc(a2-6)Gal(b1-4)GlcNAc
Summary of the method: as §1

Neu5Gc(a2-6)GalNAc = biological target: Neu5Gc(a2-6)GalNAc
Summary of the method: as §1

B1: RegIIIalpha (Mus musculus), O09037 (protein)
chain: MLPHLVLNSISWMLLSCLLFVFQVQGEDFQKEVPSPRTSCPMGYKAYRSHCYALVMTPKSWFQADLVCQKRPSGHLVSILSGGEASFVSSLVNGRVDNYQDIWIGLHDPTMGQQPNGGGWEWSNSDVLNYLNWDGDPSSTVNRGHCGSLTASSGFLKWGDYYCDGTLPFVCKFKQ
- glycan array binding signal (z-score) (Kdn(a2-3)Gal(b1-3)GlcNAc): -0.055
- glycan array binding signal (z-score) (Kdn(a2-3)Gal(b1-4)GlcNAc): -0.008
- glycan array binding signal (z-score) [1]: -0.083
- glycan array binding signal (z-score) [2]: -0.092
- glycan array binding signal (z-score) (Man(a1-2)Man(a1-3)Man): -0.091
- glycan array binding signal (z-score) [3]: -0.056
- glycan array binding signal (z-score) [4]: -0.092
- glycan array binding signal (z-score) [5]: -0.097
- glycan array binding signal (z-score) [6]: -0.101
- glycan array binding signal (z-score) [7]: -0.08
- glycan array binding signal (z-score) (Man(a1-3)[Man(a1-6)]Man): -0.088
- glycan array binding signal (z-score) [8]: -0.094
- glycan array binding signal (z-score) (Neu5Ac(a2-3)Gal): -0.031
- glycan array binding signal (z-score) [9]: -0.033
- glycan array binding signal (z-score) [10]: -0.095
- glycan array binding signal (z-score) [11]: -0.097
- glycan array binding signal (z-score) [12]: -0.096
- glycan array binding signal (z-score) [13]: -0.086
- glycan array binding signal (z-score) [14]: -0.076
- glycan array binding signal (z-score) (Neu5Ac(a2-3)Gal(b1-4)Glc): -0.094
- glycan array binding signal (z-score) [15]: -0.096
- glycan array binding signal (z-score) [16]: -0.096
- glycan array binding signal (z-score) [17]: 0.002
- glycan array binding signal (z-score) [18]: -0.085
- glycan array binding signal (z-score) [19]: -0.054
- glycan array binding signal (z-score) [20]: -0.1
- glycan array binding signal (z-score) [21]: -0.048
- glycan array binding signal (z-score) [22]: -0.026
- glycan array binding signal (z-score) [23]: -0.056
- glycan array binding signal (z-score) [24]: -0.096
- glycan array binding signal (z-score) (Neu5Ac(a2-3)GalNAc): -0.08
- glycan array binding signal (z-score) [25]: -0.092
- glycan array binding signal (z-score) [26]: -0.057
- glycan array binding signal (z-score) [27]: -0.085
- glycan array binding signal (z-score) (Neu5Ac(a2-6)Gal): -0.102
- glycan array binding signal (z-score) (Neu5Ac(a2-6)Gal(b1-4)Glc): -0.09
- glycan array binding signal (z-score) [28]: -0.083
- glycan array binding signal (z-score) [29]: -0.095
- glycan array binding signal (z-score) [30]: -0.042
- glycan array binding signal (z-score) [31]: -0.07
- glycan array binding signal (z-score) (Neu5Ac(a2-6)GalNAc): -0.058
- glycan array binding signal (z-score) (Neu5Ac(a2-8)Neu5Ac): -0.095
- glycan array binding signal (z-score) [32]: -0.096
- glycan array binding signal (z-score) [33]: -0.042
- glycan array binding signal (z-score) [34]: -0.078
- glycan array binding signal (z-score) [35]: -0.055
- glycan array binding signal (z-score) [36]: -0.083
- glycan array binding signal (z-score) (Neu5Ac(b1-6)GalNAc): -0.099
- glycan array binding signal (z-score) [37]: -0.097
- glycan array binding signal (z-score) [38]: -0.089
- glycan array binding signal (z-score) [39]: -0.095
- glycan array binding signal (z-score) [40]: -0.011
- glycan array binding signal (z-score) (Neu5Gc(a2-3)Gal(b1-4)Glc): -0.092
- glycan array binding signal (z-score) [41]: -0.099
- glycan array binding signal (z-score) [42]: -0.075
- glycan array binding signal (z-score) [43]: -0.1
- glycan array binding signal (z-score) (Neu5Gc(a2-6)GalNAc): -0.098
